# Results published in publication PMC6212790.
# The other results are listed elsewhere or left out. At the low end of the ranking the order means little.
# Molecular target: T1, GST-Rok-C97-191 (UniProt O34857)
# T1 sequence: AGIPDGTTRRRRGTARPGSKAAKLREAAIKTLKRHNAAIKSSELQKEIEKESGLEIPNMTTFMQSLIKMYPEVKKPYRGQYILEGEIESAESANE
# Assay: protein binding microarray;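 note: rank score from −0.5 (least bound) to 0.5 (best bound)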
# Details: Rok is a gene silencer of Bacillus subtilis; high values mean tight binding; most listed sequences are background and not binding sites; double strand, one strand shown
row,Sequence,binding signal [E-score]
1,AGGCGACG,-0.051
2,AGGCTAGA,-0.0549
3,TGGGCACA,-0.127
4,AGCGTCTC,-0.00989
5,CTCCGCAG,-0.295
6,TAGCGGGA,-0.101
7,ACGACAAG,-0.022
8,GAGTATGA,0.056
9,GTAGAAAA,0.384
10,TACTTAGA,0.298
11,AGGATGGG,-0.087
12,CGGGGTTA,-0.251
13,GTGACATA,0.0259
14,TCGCTAAA,0.177
15,GAAGAACC,0.0595
16,ACATAGGA,0.266
17,AACGTATG,0.128
18,CTTGGCAA,0.0183
19,ATGAAGTC,-0.0201
20,CAACTACG,0.113
21,AACAACTT,0.144
22,ACGAACCC,-0.114
23,CGGATCTA,0.0459
24,TCAGCCCA,-0.191
25,ACTAAGCA,0.0291

row,Sequence,binding signal [E-score]
1,AACGCGTA,0.0641
2,AAGTTGAA,-0.0457
3,CGCACGAC,-0.102
4,CATCATAC,0.17
5,GAGGGACA,-0.254
6,AAGTAGAT,0.407
7,ATGGCCAG,-0.0593
8,TACTATAA,0.408
9,TCCCGGCA,-0.0806
10,CAAGGGGC,-0.366
11,AATGTCAC,0.16
12,AATGACCG,-0.0146
13,CATTGGAG,-0.128
14,GACCGTTA,0.0141
15,TACCATAA,0.354
16,GGCTGAAC,-0.186
17,ACTCTGAC,-0.0474
18,CGTAGACG,-0.165
19,TCATGAAA,0.0251
20,AGCGTTGC,-0.0489
21,ACTTTGGC,-0.0258
22,CATACGAG,0.116
23,AAAACCTG,0.0387
24,GGTCCTCA,-0.158
25,AGCTAGAT,0.152

row,Sequence,binding signal [E-score]
1,AAAATCGC,0.0684
2,GCGCCTAA,-0.22
3,CATTACTC,0.131
4,CAACGTAC,0.039
5,TACCCTAA,-0.0802
6,CCGCGACC,-0.277
7,ACTGGACT,-0.138
8,CGACTCAG,-0.113
9,ATATTATC,0.245
10,GAGTTTAC,0.174
11,GCAGCACC,-0.161
12,CAGTGATG,-0.175
13,ATGATACC,0.178
14,AGGGCGGG,-0.287
15,AAATGCGG,-0.0479
16,ACAGGTAT,0.0727
17,GGAATCAA,0.0197
18,AAGGCGCG,-0.264
19,CACACTGG,-0.21
20,ATTTACAA,0.311
21,CTCGACTA,-0.0586
22,ATGTTGCG,0.0814
23,AACCCGGC,-0.107
24,GGGGTCCA,-0.381
25,AGACGACT,-0.0103

row,Sequence,binding signal [E-score]
1,ACATGTGC,-0.245
2,ACCCTACA,0.0887
3,ACGGTTCC,-0.145
4,GGGCCCTA,-0.267
5,ACTTGAGA,-0.11
6,CATCATCA,-0.00228
7,AAATCCGT,-0.0518
8,ACGTCCCT,-0.276
9,ATGTTCCG,-0.134
10,ATCACAAG,-0.208
11,GACCCCTA,-0.256
12,GCATTATA,0.119
13,ACCATGCA,0.05
14,AATGAGAA,0.0746
15,AGCTCCGG,-0.0306
16,AGAGTAAT,0.171
17,AGACCCGG,-0.0852
18,TCATCGGA,-0.0475
19,TACTGACA,0.139
20,CAATATGA,-0.0102
21,TCTCCAGA,0.00704
22,ACCCACCC,-0.0079
23,ATTTTCTC,0.255
24,ATATGCGG,-0.00039
25,CATATATA,0.353

row,Sequence,binding signal [E-score]
1,CCCATTAC,-0.0975
2,CTCAGAAC,-0.0254
3,CCCCCAGA,-0.322
4,CGCTAGTA,0.288
5,GGAGGGGA,-0.305
6,ATTTCCAC,0.0511
7,ACTTTTAA,0.18
8,CGTAGCTA,0.289
9,GTCCACAA,-0.159
10,ACTCCTCC,-0.188
11,CAAATTAA,0.151
12,AACCTCAT,-0.021
13,ACTAGCCC,-0.181
14,TCTCTGAA,-0.0114
15,CCTCTCAG,-0.209
16,CCAGTGGG,-0.163
17,ACACGAGA,-0.085
18,CCCCGGTC,-0.153
19,ATGCGCTG,0.0785
20,CGACGCAC,-0.208
21,GTGACGCA,-0.0754
22,ACCGGACT,-0.0634
23,TAAAGAGA,0.0594
24,GGACTAAA,0.0947
25,GTAATTCA,0.231

row,Sequence,binding signal [E-score]
1,CATACGGC,-0.237
2,ATTTTGAC,0.235
3,GCTTCGCC,-0.154
4,CAGCCCCA,-0.194
5,CGAGTGAC,-0.202
6,CGGGTCAA,-0.231
7,CTTATAAG,0.193
8,AGATGTCC,-0.208
9,ATGGCTAG,0.0416
10,ATTCAAGA,-0.0708
11,GGGGCCCC,-0.386
12,ATTGCGCG,0.106
13,CCACTAGC,-0.0872
14,ATAGCACA,-0.0082
15,AGAACCCT,-0.282
16,GACTCCTC,-0.29
17,CACTACCG,0.065
18,TACAAGCA,0.0903
19,CGATTGAC,-0.0318
20,ATCTACAG,0.309
21,ACAAAGCT,0.103
22,CAAAGGCG,-0.161
23,CGAACCAA,-0.129
24,AAAACGGA,-0.107
25,GTGCGAGA,-0.108

row,Sequence,binding signal [E-score]
1,ATTTACCG,0.282
2,TACGAATA,0.203
3,AAAAACAG,0.154
4,TGGCCAAA,0.00403
5,CACTCAAC,0.0322
6,CGGACTGA,-0.294
7,CTTACGGA,-0.0436
8,GCTGTCAC,-0.189
9,AGAGCTTA,-0.114
10,ACAGCGTA,0.101
11,GATACTAA,0.233
12,CCAGTGGA,-0.251
13,ACATCCGG,0.0877
14,AGCATCTA,0.198
15,CGGAGTCA,-0.107
16,AGGGTAGG,-0.0243
17,CTCATAAC,-0.0354
18,GCATATTA,0.153
19,AGAGCCGA,-0.233
20,GATTAAGC,0.145
21,ACCCCGGC,-0.285
22,CCTCCACA,-0.0677
23,ATGCCGAG,-0.113
24,ACGGTTTG,-0.0416
25,ACCGTACG,-0.000355

row,Sequence,binding signal [E-score]
1,AACACTAG,0.125
2,GCAACTCC,0.0133
3,CGCCAGAC,-0.121
4,GAGAGCTC,-0.123
5,ATACGCCA,0.033
6,CAATGGGC,-0.197
7,TAATCGGA,0.0743
8,CACGTCCA,-0.231
9,GATGACAC,-0.148
10,ACGGTCGC,-0.135
11,CGAGAGCG,-0.319
12,GGTCTTAA,-0.217
13,CCGAGTTC,0.0391
14,CGTAAGCA,-0.0659
15,CGTAACAC,0.0617
16,ATTCGTAG,0.152
17,ACGATTAC,-0.0838
18,CTTAACAC,0.151
19,AGACCAAA,-0.0391
20,CTTTTTAC,0.3
21,CTGCAGTC,-0.0762
22,CAACTCGG,0.202
23,AGACGAAG,-0.137
24,GACATTCC,-0.0274
25,GGACCAGA,0.0586

row,Sequence,binding signal [E-score]
1,CGGGAGCC,-0.132
2,GGCAGGAC,-0.0735
3,ACATGGAT,0.159
4,ACCCCCTC,-0.317
5,ATACTTGC,0.0477
6,AGCGGGCA,-0.09
7,AGTGAGGG,-0.127
8,GCACCGTA,-0.174
9,GTCCAACA,-0.0545
10,CAGTTCAC,0.0789
11,CCAGGCAC,-0.301
12,ACCCTTAA,-0.165
13,TCACCAGA,-0.0888
14,CAAACGAC,0.0537
15,AACCCAAG,-0.0339
16,CGCCACTC,-0.211
17,AACCGAGT,-0.0232
18,AAAGAATT,0.0472
19,GACATGAC,0.173
